# Assay results published in PubChem BioAssay AID686970 (National Center for Advancing Translational Sciences (NCATS), 2013).
# Among all 360,000 compounds or so, about 6,000 (1.7%) were called active. Another 8% or so got no clear call; they are omitted. The call rests on the fitted dose curve; in most records, active means well fitted cell-killing curve with a large enough effect; inconclusive means small, poorly fitted or top-dose-only effect, or effect the other way; inactive means flat fitted curve, though single readings scatter. The list shows a part of the results, in another mix than the full data.
# Experiment: qHTS for induction of synthetic lethality in tumor cells producing 2HG: qHTS for the HT-1080-NT fibrosarcoma cell line; further: nearly all actives have a fitted effect of over 55% in size
# Details: HT-1080-NT fibrosarcoma viability, CellTiter-Glo ATP luminescence, 48 h; series mostly up to 46.1 µM; activity, negative = less viability: at the top concentration
# Excerpt: Unbiased genomic sequencing for 22 glioma genomes found recurrent mutation of IDH1 on chromosome 2q33, a gene encoding the cytosolic isoform of IDH1 associated with the tricarboxylic acid cycle (TCA) that catalyzes the oxidative decarboxylation of isocitrate, yielding alpha-ketoglutarate and CO2 via NADP+ to NADPH conversion. Subsequent studies confirmed the recurrent IDH mutations in up to 70% of secondary gliomas and in 10% of AML cases. In addition, the somatic mutation of cancer-associated IDH1 is a point mutation resulting in various amino-acid substituents at Arginine132 (IDH1 R132), a key residue found in the enzyme's active site that when mutated, results in the loss-of-function in metabolizing isocitrate but confers a gain-of-function to produce the oncometabolite 2-hydroxyglutarate (2HG). This in effect defines IDH1 as an oncogene and provides an extraordinary opportunity to discover chemical probes against mutant IDH1 that may translate into much needed new therapies for glioma and AML patients.
# This assay aims to perform a synthetic lethal screen for chemical probes specific for 2HG-producing tumor cells using matched paired cell lines (1) HT-1080-NT fibrosarcoma cell line that overproduces 2HG and (2) HT-1080-IDH1KD cell line which has IDH1 expression knocked-down. Desirable compounds are toxic to the NT fibrosarcoma cells but not to the IDH1KD cell line. The data in this AID corresponds to the results of the qHTS against the HT-1080-NT fibrosarcoma cell line.
# [1] Dang L, Jin S, Su SM. IDH mutations in glioma and acute myeloid leukemia. Trends of Mol Med. 2010; 16(9): 387-97.
# [2] Dang L et al. Cancer-associated IDH1 mutations produce 2-hydroxyglutarate. Nature. 2010; 465(7300):966.
# NIH Molecular Libraries Probe Production Centers Network [MLPCN]
# NIH Chemical Genomics Center [NCGC]
# Assay Submitter (PI): Lenny Dang Ph.D., Agios Pharmaceuticals
# Suspensions of trypsinized HT-1080-NT cells were dispensed into white, tissue culture-treated, solid 1536-well plates at 5uL/well (750 cells/well final concentration) in RPMI medium supplemented with 5% FBS. Plates were incubated at 37 degrees C for 2 hours, after which 23 nL of compounds or DMSO were delivered to each well using a pin tool. Plates were then incubated at 37 degrees C for an additional 48 hours. CellTiter-Glo viability reagent (Promega) was dispensed into wells (2.5uL/well) and incubated at room temperature for 10 minutes. The plates were measured on a PerkinElmer ViewLux plate reader for luminescent signal (clear filter, 1 sec exp). DMSO-treated control wells and media-only (no cells) control wells were used to normalize %Activity of identified toxic compounds; DMSO-treated wells corresponded to 0%Activity (100% viability), while media-only controls were used to normalize 100%Activity (0% viability).
# Concentration-response curves were fitted to the signals arising from the resulting luminescence. The concentration-effect curves were then classified based on curve quality (r2), response magnitude and degree of measured activity, and compounds were subsequently categorized based on their curve class.
# Potency means the concentration at half of the fitted maximal effect.
SMILES,"activity, negative = less viability",Potency
COc1ccc2c(c1OC)C(=O)OC2C1c2cc3c(cc2CCN1C)OCO3 (stereo not drawn),inactive: 6.36%,–
C[CH2][Hg][S]c1ccccc1C(=O)O,–,active: 2.31 µM
CC[C@@H](CO)NC(=O)[C@@H]1C=C2c3cccc4c3c(cn4C)C[C@H]2N(C)C1,inactive: -19%,–
C[C@]12CC[C@H](O)C[C@H]1CC[C@@H]1[C@@H]2CC[C@]2(C)C(=O)CC[C@@H]12,inactive: 2.66%,–
N#C/C(=C\c1ccc(O)cc1)C(=O)O (tested in a mixture with another compound),inactive: -0.408%,–
C=CC[C@@H](CC/C=C/C=C/CC/C=C\[C@@H]1CSC([C@@H]2C[C@@H]2C)=N1)OC,–,active: 2.31 µM
CC12CC3CC(C)(C1)CC(N)(C3)C2,inactive: -4.06%,–
CNC(=O)Oc1ccc2c(c1)[C@]1(C)CCN(C)[C@@H]1N2C,inactive: 17.6%,–
CC(=O)OCC[N+](C)(C)C,–,inactive
COc1ccc2[nH]c3c(c2c1)CCNC3C (stereo not drawn),inactive: -0.7%,–
C[C@]12CC[C@@H](O)C[C@H]1CC[C@@H]1[C@@H]2CC[C@]2(C)C(=O)CC[C@@H]12,inactive: -0.108%,–
CCCC[N+]1(C)C2CC(OC(=O)C(CO)c3ccccc3)CC1C1OC12 (stereo not drawn),inactive: 22.9%,–
COc1ccc2c(c1OC)C(=O)O[C@H]2[C@@H]1c2cc3c(cc2CCN1C)OCO3,inactive: 19.7%,–
O=C(O)c1cc[c]([Hg][Cl])cc1,–,active: 16.4 µM
COc1nc(C)nc(Cl)c1NC1=NCCN1,inactive: -1.9%,–
CCN1/C(=C/C=C/C2=[N+](CC)c3ccccc3C2(C)C)C(C)(C)c2ccccc21,–,active: 9.2 µM
NC(N)=N/N=C/c1c(Cl)cccc1Cl,inactive: -19.3%,–
CCC(COC(=O)c1cc(OC)c(OC)c(OC)c1)(c1ccccc1)N(C)C (stereo not drawn),inactive: 3.29%,–
c1ccc(-c2cc(-c3ccccc3)[n+](-c3ccccc3)c(-c3ccccc3)c2)cc1,–,active: 3.66 µM
CC[C@H]1CN2CCC1C[C@@H]2[C@@H](O)c1ccnc2ccc(OC)cc12 (stereo partly drawn),inactive: -6.2%,–
Cn1cccc1/C=C1/C(=O)NC(=O)N(Cc2ccccc2)C1=O,inactive: -17.4%,–
Nc1ncc2[nH]cnc2n1,inactive: 0.393%,–
CN(C)[C@@H]1C(=O)C(C(N)=O)=C(O)[C@@]2(O)C(=O)C3=C(O)c4c(O)ccc(Cl)c4[C@@](C)(O)[C@H]3C[C@@H]12,inactive: -8.43%,–
